Assay results from PubChem BioAssay (NCI).
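In this assay, cells in 96-well plates receive the compound at five concentrations for 48 hours. Endpoints are linearly interpolated between the surrounding concentrations. GI50: concentration for 50% inhibition of growth. At the TGI there is no net growth.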

These compounds were tested on NCI-H322M lung (assay: DTP human tumour cell line panel, 48 h).

First: N#C/C(=C1/C(=O)Nc2ccccc21)c1nnc(NC(=O)c2ccc(-n3c(=O)[nH]c4ccccc4c3=O)cc2)s1
Second: O=C(N/N=C/c1ccc(-c2ccc(O)cc2)s1)c1[nH]c2ccc(Br)cc2c1-c1ccccc1
The GI50 of the first is 12-fold higher: 60 µM for the first, 5.18 µM for the second.

First: CCCn1cc(-c2nc(Nc3ccc(C(=O)NCCCCNc4cccc5c4C(=O)N(C4CCC(=O)NC4=O)C5=O)cc3)nc3[nH]ccc23)cn1 (stereo not drawn)
Second: O=C1C=CC(=CC=C2N(Cc3ccc4ccccc4c3)c3ccccc3N2Cc2ccc3ccccc3c2)C=C1
The GI50 of the first is lower: under 0.01 µM for the first, 2.42 µM for the second.

First: N#C/C(=C1/C(=O)Nc2ccccc21)c1nnc(NC(=O)c2ccc(-n3c(=O)[nH]c4ccccc4c3=O)cc2)s1
Second: O=C(N/N=C/c1ccc(-c2ccc(O)cc2)s1)c1[nH]c2ccc(Br)cc2c1-c1ccccc1
The TGI of the first is higher: over 100 µM for the first, 17.9 µM for the second.

`CCCn1cc(-c2nc(Nc3ccc(C(=O)NCCCCNc4cccc5c4C(=O)N(C4CCC(=O)NC4=O)C5=O)cc3)nc3[nH]ccc23)cn1` (stereo not drawn) and `O=C1C=CC(=CC=C2N(Cc3ccc4ccccc4c3)c3ccccc3N2Cc2ccc3ccccc3c2)C=C1` cannot be ordered by TGI: over 100 µM for the first, over 23.9 µM for the second.
